# Results published in paper PMC6919601, “Identification of Plasmodium dipeptidyl aminopeptidase allosteric inhibitors by high throughput screening” (PLoS ONE, 2019).
# About 230 (0.21%) of roughly 110,000 compounds showed an effect of 50% or more. This is one part of the list.
# Target: DPAP1 (Plasmodium falciparum, UniProt Q8IIJ9)
# Assay: primary screen, percent inhibition; read by cleavage of a fluorogenic dipeptide substrate; higher = more effect of the substance
# Design: species or system P. falciparum D10 trophozoite lysates; single well
# 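Further: 30 min substrate incubation versus DMSO and 10 µM JCP410 controls.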
# Chain of DPAP1 (Q8IIJ9 whole entry, looked up): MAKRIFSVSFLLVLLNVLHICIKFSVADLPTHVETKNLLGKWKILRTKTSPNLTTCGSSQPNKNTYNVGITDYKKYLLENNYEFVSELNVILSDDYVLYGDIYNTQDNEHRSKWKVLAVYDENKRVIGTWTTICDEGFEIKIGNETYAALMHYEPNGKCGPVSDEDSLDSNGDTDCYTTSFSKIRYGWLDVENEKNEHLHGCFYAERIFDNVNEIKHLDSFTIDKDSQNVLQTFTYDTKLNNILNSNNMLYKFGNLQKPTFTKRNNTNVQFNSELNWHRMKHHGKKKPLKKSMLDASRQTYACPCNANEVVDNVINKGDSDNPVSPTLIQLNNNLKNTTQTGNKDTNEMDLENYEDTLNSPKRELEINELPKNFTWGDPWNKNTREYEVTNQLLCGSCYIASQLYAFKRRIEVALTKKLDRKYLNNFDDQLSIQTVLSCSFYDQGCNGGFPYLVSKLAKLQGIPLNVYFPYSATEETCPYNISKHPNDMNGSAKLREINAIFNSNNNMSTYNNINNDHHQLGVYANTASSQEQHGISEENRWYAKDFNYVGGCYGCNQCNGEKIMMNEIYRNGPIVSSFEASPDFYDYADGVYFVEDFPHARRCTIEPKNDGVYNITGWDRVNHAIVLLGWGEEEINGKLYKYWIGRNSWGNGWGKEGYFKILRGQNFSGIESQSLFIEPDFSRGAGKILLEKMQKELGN
row,Structure (SMILES),% Inhibition @ 10 uM
1,CCOC(=O)C1=CN(C)C=C(C(=O)OCC)C1c1ccc(OC)c(Br)c1,4.99%
2,CCc1ccc2nc(N3CCC(C(=O)NC(C)c4ccccc4)CC3)sc2c1 (stereo not drawn),1.07%
3,Cc1cnc(NC(=O)CSc2nnc(COc3c(C)cccc3C)o2)s1,-8.71%
4,O=C(NC(Cc1ccccc1)c1ccccc1)c1ccco1 (stereo not drawn),-6.91%
5,O=C(Cc1ccc(F)cc1F)Nc1ccc(Br)cc1,-2.54%
6,COc1ccc(-c2cn3c(C)c(C(=O)NCCCOC(C)C)sc3n2)cc1,3.19%
7,COc1ccc(-n2ccc3ccccc32)cc1,-4.06%
8,CCOc1ccc(C(=O)C2=C(O)C(=O)N(c3nccs3)C2c2ccc(C)cc2)cc1 (stereo not drawn),0.583%
9,Cc1noc2ncn(CC(=O)NC(C)C)c(=O)c12,-4.21%
10,CCN(CCNc1ncnc2onc(-c3ccc(F)cc3)c12)Cc1ccccc1,0.533%
11,O=C(NCc1ccco1)C1CC(c2ccccc2F)=NO1 (stereo not drawn),-0.431%
12,COC(=O)c1ccc(COc2ccc3c(=O)c(-c4ccccc4)coc3c2)cc1,-3.21%
13,O=C(Nc1ccccc1)Nc1ccc(S(=O)(=O)N2CCCCCC2)cc1,-5.32%
14,COc1ccc(N(C(C)C(=O)Nc2ccc(C)c(C)c2)S(C)(=O)=O)cc1 (stereo not drawn),-1.95%
15,CCCCNC(=O)C1CCN(c2nnc(C)c3c(C)n(-c4ccccc4)nc23)CC1,10.2%
16,CN(C)c1cccc(NC(=O)C(c2ccccc2)c2ccccc2)c1,1.57%
17,Cc1ccc(S(=O)(=O)NCc2ccc(C(=O)NCCCN(CC(C)C)CC(C)C)cc2)cc1,-3.35%
18,CC1CN(S(=O)(=O)c2ccc(C(=O)N3CCNCC3)cc2)CC(C)O1 (stereo not drawn),-1.11%
19,CCCN1CCC(N2CCCCCC2)CC1,-3.6%
20,Cc1cc(C)cc(OCC(O)CNC(C)C)c1 (stereo not drawn),3%
21,COc1cc(C2C3=C(O)CCCC3=Nc3nn(-c4ccccc4)c(O)c32)ccc1O (stereo not drawn),-5%
22,CCOC(=O)C1=C(C)N=C(SC)NC1c1ccc(OC)cc1 (stereo not drawn),5.04%
23,Cc1cc(C)c2c(n1)SCC(=O)N2CCCC(=O)NCc1ccc(OC(C)C)cc1,1.03%
24,N#Cc1c(-c2ccc(Cl)cc2)nc2n(c1=O)CCS2,2.45%
25,Cc1cccc2sc(NS(=O)(=O)c3ccc(F)cc3)nc12,-5.57%
26,CCN(CC)CCCNC(=O)CSc1cc(Cl)nc2ccc(C)cc12,4.33%

row,Structure (SMILES),% Inhibition @ 10 uM
1,CCS(=O)(=O)N1CCCC(C(=O)NCc2ccc3c(c2)OCO3)C1 (stereo not drawn),1.62%
2,CCCNC(=O)c1ccc(C2SCC(=O)N2Cc2ccccc2)cc1 (stereo not drawn),-2.32%
3,Cc1oc2c(c1C(=O)NCc1cc(C(=O)O)co1)CCCC2,-3.34%
4,COc1ccc(Cl)cc1-c1nc(-c2ccc(C)cc2)no1,-3.53%
5,CCOCC(O)CSCc1ccc(Cl)cc1 (stereo not drawn),-2.54%
6,CC(C)CNS(=O)(=O)c1ccc(CCC(=O)NC2CCCCC2)cc1,4.05%
7,Cc1ccc(CSc2nc(=O)c3c(n2C)NC(=O)CC3c2ccc(O)c(O)c2)cc1 (stereo not drawn),11.1%
8,O=C(Cc1ccncn1)c1ccccc1,2.55%
9,CN1CCN(Cc2c3c(c(CN4CCN(C)CC4)c4c2CCC4)CCC3)CC1,-4.15%
10,CCOCCCNC(=O)c1c(NC(=O)Cc2coc3c(C)c(C)ccc23)sc2c1CCCC2,-0.671%
11,COc1ccc(CNC(=O)Cc2c(C)nc3c(-c4ccc(F)cc4)c(C)nn3c2C)cc1,2.57%
12,CCCS(=O)(=O)N1CCC(C(=O)NC(C)CC)CC1 (stereo not drawn),3.24%
13,COc1ccc(C2=N/C(=C\c3cc(Br)cs3)C(=O)O2)cc1Br,-2%
14,CC(C)N(CCCNC(=O)Cn1c2ccccc2c2cnnc(O)c21)Cc1ccccc1,3%
15,COc1ccc(Br)cc1CNC(=O)Cn1c(=O)c2cccn2c2cccnc21,-1.24%
16,Cc1ccc(-c2onc(C)c2C)cc1S(=O)(=O)Nc1cccnc1,-1.52%
17,COC(=O)C1=C(C)N(Cc2ccccc2)C(=O)/C1=C\c1ccc(C(=O)O)cc1,-1.6%
18,O=C(COc1ccc2ccccc2c1Br)Nc1nccs1,-0.759%
19,CCOc1cccc(C(=O)Nc2c(C(=O)c3ccccc3)oc3ccccc23)c1,-2.91%
20,Cc1nn(-c2ccccc2)c2c1C(c1cccc([N+](=O)[O-])c1)C(C#N)=C(N)O2 (stereo not drawn),-0.807%
21,O=C1/C(=C/c2ccc3nccnc3c2)CCC1C1CCCC1 (stereo not drawn),66.2%
22,COC(=O)c1ccc(-n2nnnc2SCc2c(C)ccc3ccccc23)cc1,3.25%
23,COC(=O)C1=C(C)NC(=O)C1(NC(=O)c1ccncc1)C(F)(F)F (stereo not drawn),-0.403%
24,CCC(C)NC(=O)C(=O)NCc1ccccc1 (stereo not drawn),-4.01%
25,Cc1ccc(C(=O)NCc2ccc3c(c2)OCO3)cc1C,0.611%
26,COc1ccccc1-c1nn2c(Cc3ccccc3)nnc2s1,3.38%

row,Structure (SMILES),% Inhibition @ 10 uM
1,Clc1ccc(-c2noc(-c3ccccn3)n2)cc1,-5.21%
2,CC1(C)CC(Cc2ccccc2)(C(=O)O)CCO1 (stereo not drawn),-1.99%
3,CCOc1ccc(-c2cc(C(=O)N3CCN(Cc4ccc(OC)c(OC)c4OC)CC3)[nH]n2)cc1,0.297%
4,COCCCN1CC(=O)C(c2nc3cc(C)ccc3[nH]2)=C1N,-6.72%
5,C=CCCCC(C=C)S(=O)(=O)c1ccc(C)cc1 (stereo not drawn),5.58%
6,CC12CN3CC(C)(CN(C1)C3c1ccc(O)cc1)C2=O (stereo not drawn),-4.35%
7,O=C(Nc1cccc([N+](=O)[O-])c1)c1ccccc1C(=O)Nc1cccc2ccccc12,-6.52%
8,CCOC(=O)C1=C(CS(=O)(=O)c2ccccc2)NC(=O)NC1c1ccccc1OCC (stereo not drawn),2.85%
9,COc1cc(C2C(C#N)=C(N)Oc3[nH]nc(C(C)C)c32)ccc1O (stereo not drawn),-2.77%
10,O=C(NCCN1CCOCC1)c1cc2nc(-c3ccc(Cl)c(Cl)c3)cc(C(F)(F)F)n2n1,-1.57%
11,CCOc1ccc(CNS(=O)(=O)c2cc(C(=O)OC)n(C)c2)cc1OC,-1.78%
12,CN(Cc1ccccc1)C(=O)C1CCC(CNS(=O)(=O)c2cccc3cccnc23)CC1 (stereo not drawn),-4.21%
13,CCCCNC(=O)CN(c1cccc(F)c1)S(C)(=O)=O,0.605%
14,O=C1NC(c2cccc(F)c2)C(C(=O)c2ccccc2)C(O)(C(F)(F)F)N1 (stereo not drawn),0.24%
15,CCOC(=O)C1=Cc2sc3c(c2CS1)CCCC3,9.04%
16,CC1CCCCN1CCNC(=O)c1cc(S(=O)(=O)N2CCCC2)cn1C (stereo not drawn),-0.659%
17,Cc1cc(-c2ccccc2)c2c(N)c(C(=O)NC3CCCCC3)sc2n1,-1.72%
18,COc1ccc(-c2cc(C(=O)Nc3ccncc3)c3ccccc3n2)c(OC)c1,0.331%
19,Cc1c(-c2nsc(NC(=O)c3cccs3)n2)nnn1-c1ccc(C(C)C)cc1,-1.74%
20,CCCCn1nnc2sc3c(c2c1=O)CCC(C(C)(C)C)C3 (stereo not drawn),-0.946%
21,Cn1c2c(c(=O)n(C)c1=O)CN(CC1CCN(Cc3ccccc3F)CC1)CN2,-2.88%
22,CC(C)C[C@H](NC(=O)c1ccc(N2CCCC2=O)cc1)C(=O)NCC#N,-11%
23,COCc1nnc(NC(=O)CSCc2ccccc2)s1,3.87%
24,O=C(Cn1cnc(S(=O)(=O)N2CCCC2)c1)NCc1ccc(F)cc1,2.65%
25,O=C(COc1ccccc1)Nc1nc(-c2ccc(S(=O)(=O)N3CCOCC3)cc2)cs1,12.5%
26,COCCCNC(=O)CSc1nnc(-c2ccc(C)cc2)c(-c2ccc(C)cc2)n1,-0.615%

row,Structure (SMILES),% Inhibition @ 10 uM
1,CS(=O)(=O)C1=NN2C(=N)/C(=C\c3ccc(OCCOc4ccccc4)cc3)C(=O)N=C2S1,-3.39%
2,Cc1ccc(NC(=O)/C(C#N)=C(\N)C(Cl)(Cl)Cl)nc1,2.8%
3,CC(C)NC(=O)C(=O)Nc1ccc2c(c1)OCCO2,-0.833%
4,COc1ccccc1S(=O)(=O)Cc1ccc(C(=O)NCc2ccccc2Cl)o1,-3.32%
5,CNC(=O)c1cccnc1Nc1cccc(C(F)(F)F)c1,0.245%
6,O=C1NC(=O)N(c2ccccc2)C(=O)/C1=C\Nc1ccccc1Cl,-6.62%
7,CC1=CC(C)(C)N2C(=O)C(=O)c3c(C)c(C)cc1c32,2.36%
8,COc1ccc(OCCSc2nc(C)cc(O)n2)cc1,-4.76%
9,O=C(O)CNS(=O)(=O)c1ccc(C2CCCCC2)cc1,2.44%
10,COC(=O)c1c(NC(=O)C2CCCO2)sc2c1CCC2 (stereo not drawn),1.4%
11,Cc1ccc(CSc2nc3ccc(C(=O)N4CCN(c5ncccn5)CC4)cc3n2C)cc1,4.24%
12,CCN(CCN(C)C)C1CCC(C)CC1 (stereo not drawn),3.44%
13,O=C(CSC1CC(=O)N(c2ccc(F)cc2)C1=O)Nc1ccc2ccccc2c1 (stereo not drawn),-1.08%
14,Cc1ccc(-c2cc(C(=O)N3CCCC(C)C3)n[nH]2)cc1C (stereo not drawn),2.79%
15,CCCCSc1nc2ccc(NC(C)=O)cc2s1,0.815%
16,c1ccc(CN2CCC(NCCCN3CCOCC3)CC2)cc1,3.19%
17,CCC(C)C(NCc1cccc(C)c1)C(=O)O (stereo not drawn),-1.99%
18,Cc1ccc(CNc2c3c(nc4nncn24)CCC3)cc1,-5.33%
19,CN(c1cccc(NS(=O)(=O)c2cc(Cl)ccc2Cl)c1)S(C)(=O)=O,-4.14%
20,Cc1ccccc1-c1noc(C2CCC(c3ccccc3)CC2)n1 (stereo not drawn),-2%
21,Cc1c(Cl)cccc1-n1ncnc1-c1ccc(Cl)cc1,-3.6%
22,CCOc1ccccc1/C=C(\C#N)c1nc(-c2ccc(Br)cc2)cs1,-7.99%
23,CC(C)(C)NCC(O)COc1cccc2c3c(oc12)CCCC3 (stereo not drawn),-3.16%
24,Cc1noc(C)c1S(=O)(=O)NC(c1ccccc1)c1ccccc1,-1.83%
